From PubChem BioAssay (NCATS)
This is one part of the list. Further columns of the screen follow, without active or inactive calls. Compounds called inactive in the main read-out are mostly missing here.

Experiment: qHTS Assay for Lipid Storage Modulators (AID 1519)
Details: Drosophila S3 cells, BODIPY lipid droplet/cell ratio, laser cytometry; measured here: lipid channel max response; cells loaded with oleic acid
Method in brief: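 Cells seeded at 5,000 per well were treated with compounds over a concentration series and loaded with oleic acid (400 uM, as added). Lipid droplet fluorescence (488 nm excitation, 500-530 nm channel) was read by laser-scanning cytometry and normalized to 20 uM Triacsin C.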

| Structure (SMILES) | max response |
| --- | --- |
| COc1ncc2nc(-c3ccccc3)c(=O)n(Cc3cccs3)c2n1 | 18.2% |
| O=c1c(-c2ccc(F)cc2)nc2cnc(N3CCOCC3)nc2n1CCc1ccccc1 | 26% |
| c1csc(CNc2nc(-c3ccc4c(c3)OCO4)nc3ccccc23)c1 | 28.8% |
| COc1ncc2nc(-c3ccc(Cl)cc3)c(=O)n(CCC#N)c2n1 | 42.8% |
| CN(C)c1ncc2nc(CCc3ccccc3)c(=O)n(Cc3cccs3)c2n1 | 47.1% |
| CS(=O)(=O)Nc1cccc(-c2cc(NCc3ccccc3)ncn2)c1 | 30.2% |
| Cc1cnc(CNc2cc(-c3ccccc3C(F)(F)F)ncn2)cn1 | 44.8% |
| COc1ccc2[nH]cc(CCNc3ncncc3-c3ccccc3C(F)(F)F)c2c1 | 21.9% |
| CC1c2cccc(O)c2C(O)=C2C(=O)[C@]3(O)C(O)=C(C(N)=O)C(=O)C(N(C)C)C3C(O)C21 (some centres undefined) | 50.1% |
| COc1cc(OC)c2c(=O)c(-c3ccccc3)coc2c1 | 33.9% |
| COc1ccccc1CNc1ccnc(-c2cccnc2)n1 | 27.3% |
| c1ccc(Nc2nc(-c3ccc4c(c3)OCO4)nc3ccccc23)cc1 | -11.1% |
| COc1ncc2ncc(=O)n(Cc3ccc(F)cc3)c2n1 | 32.5% |
| O=c1cnc2cnc(N3CCOCC3)nc2n1Cc1ccc(F)cc1 | 14.4% |
| O=S(=O)(c1ccccc1)N1CCC2(CCCN(c3cccc(-c4ccccc4)c3)C2)CC1 | 30.2% |
| COc1ccccc1-c1nc(NCCc2cnc[nH]2)c2ccccc2n1 | 41.9% |
| COc1ccc2[nH]cc(CCNc3nc(-c4cccnc4)nc4ccccc34)c2c1 | 34.1% |
| C=C1C(=O)C23C(O)C1CCC2[C@]12COC3(O)C(O)C1C(C)(C)CC[C@H]2O (some centres undefined) | -111% |
| O=S(=O)(c1ccccc1)N1CCC[C@@]2(CCN(c3cccc(-c4ccccc4)c3)C2)C1 | 32.4% |
